Data published in PubChem BioAssay AID1745853 (National Center for Advancing Translational Sciences (NCATS), 2022).
The other results are listed elsewhere or left out. The main result of the screen is listed elsewhere. These columns were measured beside it and carry no call.

Experiments:
Assay in all cases: Primary Screen for Target Class Profiling of Small Molecule Inhibitors of Methyltransferases
[1] = target: Glycine N-methyltransferase (Homo sapiens) (UniProt Q14749); conditions: purified enzyme, MTase-Glo SAH luminescence; measured here: GNMT inhibition; at 40 µM; stronger effect = lower value
Procedure, shortened: (§1)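 Each enzyme was assayed with SAM and its substrate. SAH formation detected by MTase-Glo luminescence; single-point 40 uM screen[…].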

[2] = target: Guanidinoacetate N-methyltransferase (Homo sapiens) (UniProt Q14353); conditions: purified enzyme, MTase-Glo SAH luminescence; measured here: GAMT inhibition; at 40 µM; stronger effect = lower value
Procedure, shortened: as §1

[3] = target: Histamine N-methyltransferase (Homo sapiens) (UniProt P50135); conditions: purified enzyme, MTase-Glo SAH luminescence; measured here: HNMT inhibition; at 40 µM; stronger effect = lower value
Procedure, shortened: as §1

[4] = target: Nicotinamide N-methyltransferase (Homo sapiens) (UniProt P40261); conditions: purified enzyme, MTase-Glo SAH luminescence; measured here: NNMT inhibition; at 40 µM; stronger effect = lower value
Procedure, shortened: as §1

[5] = target: Phenylethanolamine N-methyltransferase (Homo sapiens) (UniProt P11086); conditions: purified enzyme, MTase-Glo SAH luminescence; measured here: PNMT inhibition; at 40 µM; stronger effect = lower value
Procedure, shortened: as §1
On the % scale 0 is the no-effect control and ±100 the full control effect.

| SMILES | activity change, negative = inhibition [1] | activity change, negative = inhibition [2] | activity change, negative = inhibition [3] | activity change, negative = inhibition [4] | activity change, negative = inhibition [5] |
| --- | --- | --- | --- | --- | --- |
| CN(C)c1ccc(C2c3cccn3-c3ccccc3CN2C(=O)NC2CCCC2)cc1 (stereo not drawn) | 9.96% | 1.02% | -3.46% | -2.64% | 5.89% |
| N#CC(OC1OC(COC2OC(CO)C(O)C(O)C2O)C(O)C(O)C1O)c1ccccc1 (stereo not drawn) | 0% | – | 0.488% | – | – |
| CC(C)N1CC2CCC(C1)N2Cc1cccs1 | -3.6% | -5.73% | -3.38% | -9.19% | -7.03% |
| Cc1ccc(NC(=O)N2Cc3ccccc3-n3cccc3C2c2cccs2)cc1 (stereo not drawn) | 7.35% | 0.644% | 2.77% | 4.7% | 7.18% |
| O=C(NCc1ccccc1)N1Cc2ccccc2-n2cccc2C1c1ccccc1 (stereo not drawn) | 7.06% | 3.26% | 1.92% | -8.25% | 5.41% |
| CC(C)N1C[C@@H]2OCC(=O)N(Cc3ccccn3)[C@@H]2C1 | -4.16% | -1.25% | -0.132% | -0.913% | 1.76% |
| CO/C1=C/C(C)=C\[C@@H](C)[C@@H](O)[C@@H](C)C/C(C)=C\C=C/[C@H](OC)[C@@H]([C@@H](C)[C@@H](O)[C@H](C)[C@@]2(O)C[C@@H](O)[C@H](C)[C@@H](C(C)C)O2)OC1=O | – | 9.22% | – | -3.73% | 5.61% |
| N=C(N)c1ccc(CS(=O)(=O)F)cc1 | 3.41% | 12% | 4.86% | 0.398% | 7.37% |
| C=C1C(=O)CC2OC2(C)CC2OC(=O)C(=C)C2C(O)C1OC(=O)/C(C)=C\C (stereo not drawn) | -0.812% | -4.26% | 6.02% | -18.5% | -14.8% |
| O=C(O)CNC(=O)c1c(O)c2ccccc2n(Cc2ccccc2)c1=O | 1.63% | -2.04% | 5.83% | -11.4% | 1.02% |
| Cc1ccccc1C1c2cccn2-c2ccccc2CN1C(=O)Nc1ccccc1 (stereo not drawn) | 10.5% | 0% | 7.89% | 3.16% | 5.9% |
| Cc1cc(C[C@@H]2COC[C@@H]2NC(=O)c2cn(C)c3ccccc23)on1 | -3.65% | -8.47% | -2.04% | -3.94% | -5.29% |
| COc1ccc(OC)c(NC(=O)N2Cc3ccccc3-n3cccc3C2c2cccc(Cl)c2)c1 (stereo not drawn) | 10.3% | 1.29% | 4.21% | 5.55% | 6.63% |
| CCOC(=O)Cc1ccc(NC(=O)N2Cc3ccccc3-n3cccc3C2c2ccc(F)cc2)cc1 (stereo not drawn) | -0.594% | 2.95% | 3.39% | 6.19% | 7.54% |
| C=C[C@H]1CN2CC[C@H]1C[C@@H]2CNS(=O)(=O)c1ccc(Cl)cc1 | -6.64% | -9.17% | -5.89% | -11.3% | 6.08% |
| NC(=NCCC[C@H](N)C(=O)O)N[N+](=O)[O-] | 3.51% | 13% | 8.87% | -1.41% | 6.18% |

| SMILES | activity change, negative = inhibition [1] | activity change, negative = inhibition [2] | activity change, negative = inhibition [3] | activity change, negative = inhibition [4] | activity change, negative = inhibition [5] |
| --- | --- | --- | --- | --- | --- |
| COCCn1c(C)cc(C(=O)NC2CCc3nnc(C4CC4)n3CC2)c1C (stereo not drawn) | -1.32% | 0.277% | -0.978% | -1.33% | -2.86% |
| O=C1NC(=O)c2c1c1c3ccccc3[nH]c1c1[nH]c3ccccc3c21 | – | -37.7% | – | -51% | -19% |
| CC(CCc1ccccc1)NC(C)C(O)c1ccc(O)cc1 (stereo not drawn) | -4.28% | 6.93% | -9.18% | -9.87% | 1.38% |
| CCCOC(=O)Cc1ccc(OCC(=O)N(CC)CC)c(OC)c1 | -2.45% | -4.37% | -4.19% | -22.1% | -9.09% |
| COc1ccc(C2c3cccn3-c3ccccc3CN2C(=O)Nc2cccc(C)c2)cc1 (stereo not drawn) | 6.96% | 0% | -0.082% | 0.373% | 4.97% |
| COc1ccc(C)cc1NC(=O)N1Cc2ccccc2-n2cccc2C1C(C)C (stereo not drawn) | 2.35% | 0.159% | 4.39% | 1.73% | 6.92% |
| CCc1ccc(NC(=O)N2Cc3ccccc3-n3cccc3C2CC)cc1 (stereo not drawn) | 1.05% | 0% | 2.55% | 1.64% | 7.11% |
| CC1c2cccn2-c2ccccc2CN1C(=O)Nc1ccc(F)cc1 (stereo not drawn) | 11.5% | 4.43% | 5.11% | -5.73% | 5.4% |
| COc1cccc(CNC(=O)N2Cc3ccccc3-n3cccc3C2C(C)C)c1 (stereo not drawn) | -3.01% | -0.592% | -3.19% | -3.77% | 2.45% |
| CCc1ccc(NC(=O)N2Cc3ccccc3-n3cccc3C2c2ccccc2Cl)cc1 (stereo not drawn) | 5.13% | 5.46% | -3.94% | -1.97% | 1.48% |
| O=C1C[C@@H]2OCC=C3CN4CC[C@]56c7ccccc7N1[C@H]5[C@H]2[C@H]3C[C@H]46 | 4.83% | 2.73% | 9.48% | -10.3% | 6.71% |
| CCc1ccccc1NC(=O)N1Cc2ccccc2-n2cccc2C1C(C)C (stereo not drawn) | 1.41% | 0.386% | 3.93% | 2.98% | 4.68% |
| CC1=CC(=O)[C@@H](O)[C@]2(C)C3[C@@H](O)[C@@H]4OC(=O)[C@@H]([C@H]4C)[C@]3(C)C(=O)[C@H](O)[C@@H]12 (stereo partly drawn) | 4.34% | 7.16% | 7.5% | -4.75% | 7.88% |
| COc1ccc(C2c3cccn3-c3ccccc3CN2C(=O)Nc2cccc(C)c2C)cc1 (stereo not drawn) | 12% | 1.95% | 5.68% | -1.22% | 5.73% |
| C/C=C(\C)C(=O)OC1CC2C(CC=C3CC(OC4CC(OC)C(OC5CC(OC)C(OC6OC(C)C(OC7OC(CO)C(O)C(O)C7O)C(OC)C6O)C(C)O5)C(C)O4)CCC32C)C2(O)CCC(C(C)=O)C12C (stereo not drawn) | 7.25% | 21.9% | 12% | 4.45% | 8.9% |
